The supplement of paper PMC11417369
The list shows a part of the results.

The sequences below were run on PfAP2-HC AP2 domain (GST-tagged) (assay: gcPBM binding intensity (ln(normalized median fluorescence intensity)); higher = stronger DNA binding).
Method in brief: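 Binding intensity is defined as the maximum Masliner-normalised natural-log median intensity across replicate spots for either probe orientation. It was measured on an Agilent 4 × 180k array of primer-extended double-stranded 36-bp intergenic genomic probes and negative controls, to which GST-tagged P. falciparum DNA-binding domains made in E. coli were applied for 1 h in 1× PBS with 1% milk, 0.2 mg/ml BSA, 0.5% salmon testes DNA and 0.03% Triton X-100. Detection was by Alexa488 anti-GST antibody and scanning at 488 nm.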

Sequence	gcPBM binding intensity (ln)
CACATACATATATATACACACAAATATATATACACA [CACACA_site8164]	10
GATATAAAATATTGGTGTACTTTTTTTTTTTTTTTT [XGTACX_site7174]	9.47
GTATGTGTGTCAAGTCGTACTTACCTTTAAATTTTT [XGTACX_site2507]	10.1
TTTTTTTTTTTTTTTTTTTCTATTTTACTGTTTCGT [CACACA_negctrl_site850]	8.78
TGTGAAGTACCGAATGTGCACTGTGTGTGTTCTTTT [GTGCAC_site9613]	10.4
ATAATTAATAAATAATGTACATATATATTATATTTT [XGTACX_site8546]	9.61
TTTTTATATTTTTGCACACATTCTTTACTCTTCAAA [CACACA_site2210]	10
TATATATATGGACACACACACATATAAATAAATAAA [CACACA_site4406]	10.7
TTAAAAAAAAAACACACACACATACACATATATATA [CACACA_site3299]	11.1
ATGATTATTTTAAAAAGTACTAATTATTATTTTTTT [XGTACX_site7242]	9.37
GAATATGAATATTTGCGTACTTATATAACTGTTCTA [XGTACX_site883]	9.72
AAAAAAAATAATAATACACACAATATGATATGTACA [CACACA_site850]	9.97
ATACACATTCGAAATAACAAAAAAATACATACACAT [GTGCAC_negctrl_site628]	9.87
TACTATAAGATATATACACACAAGAAATACAAAACG [CACACA_site6764]	10.4
ATTATTTTAATTTTAATTTTTTTTTTTTTTTGTTTT [CACACA_negctrl_site1063]	9.4
TATTTTTCCATAAAAATTTATATAGAAACAAATAAT [GTGCAC_negctrl_site103]	9.29
CCCTTTTATTAAAATTCACACACATAAATTTTTATA [CACACA_site8611]	9.96
TTTTTATACAATTAGACACACACAAAAAGTATATAT [CACACA_site8272]	9.93
ATATATGTATATTTTTGTACGCATAAATATATTTTT [XGTACX_site827]	9.62
TGCTTAATTTACGTGGGTACATACACCTCATATATT [XGTACX_site3093]	9.77
TTAATACATATATATATATTATATATATATATATAT [TGCATGCA_negctrl_site177]	9.62
TATTTGTTGTGAGTCACACATATATATATATATATA [CACACA_site4240]	9.84

Sequence	gcPBM binding intensity (ln)
TTTTTTATAAAATTTTTTTTTTAAAATATTAAAACT [XGTACX_negctrl_site240]	9.35
AAGCTATATATAGGCAGTACTTTGTAAGTGTAGATA [XGTACX_site8365]	9.82
AAAAAAAAAAAAAAAACACACAGAACAATATATAAA [CACACA_site4698]	10.3
TATATGCATATACATACACACATAACACATACGTTT [CACACA_site3832]	9.98
TTTCTAATTCTTAGTGGTACACAGTTCTGCTGATAT [XGTACX_site2391]	9.5
ATATGTCACTTGTATACACACATATAGATTTCAATC [CACACA_site7519]	9.94
TTGTTTTTTTTTGGCTGTACGTTCATAAATTTTTTT [XGTACX_site4165]	9.74
TTTTCATAAAATCATTGTACATTTATCGTATATTAA [XGTACX_site3855]	9.65
AAAATATCTTATATATGTACATATTTATATTTATAT [XGTACX_site6027]	9.78
ATATTGTAAGTAAACACACACACATATATATGTATA [CACACA_site8124]	10.6
ACAATTTACACTTAAACACACAAAAAAAAATTATAT [CACACA_site2065]	9.99
GCATCGATCAAACATACACACATGGTTAATAAAAAT [CACACA_site8651]	10
AAGGTAGAAATATGTTGTACGGTTTGGAGGAAGCAA [XGTACX_site1105]	9.73
TGTTTTATTTTATTAGTGCATTTTTATTTATAATAG [GTGCAC_site9453]	9.59
ACATATATATTCATATGTACATATACATACATACAT [XGTACX_site4563]	9.94
GACAAAAAATTAAAATAAAATAATAATATAATAAAA [GTGCAC_negctrl_site234]	9.62
ATATAATAGTTATATTGTACATAAATTATACACCTT [XGTACX_site628]	9.7
TATAAACACCCATATAAACACACATATAAACCAACA [CACACA_site8790]	10
ATACGCACACATATATGTACATATTGTATATATATA [XGTACX_site3962]	9.91
GGAATGGTACATGATACACACACGCACATATATATA [CACACA_site5825]	10.1
TATATTAAACAATATACACACATTAATGTATACATA [CACACA_site2755]	9.8
AATATATGTATATATTTTTTTTTTTCCCTTACAAAT [GTGCAC_negctrl_site428]	9.37
